# The list shows a part of the results.
# B1: chr1:84034342:84034343:-_ENSMUSG00000045658_ENSMUST00000168574|mus_hu|FALSE|FALSE (ssRNA)
# RNA: GGGAGUUCUACAGUCCGACGAUCGCCUGAGCGUGGUGAAAACUGGCAUGGAGCUCUCCCACAGAGAGGCAUUGGGAAAUGAGAAAAAUAAGAGAGCCUAGAACCUUCCUCCCCAUCCACACUCCCACCCUCCUCACAGUCACACAACAGAGGAUUGAGCAUCA
# B2: chr1:60039268:60039269:+_ENSMUSG00000041040_ENSMUST00000036540|mus_hu|FALSE|FALSE (ssRNA)
# RNA: GGGAGUUCUACAGUCCGACGAUCUGACCACAUGGUGAAAUGUGUACAGGAGUAGUGAAGAAAACAGCAGUUAUACAAAUAUUUCACCCAAAGCACAAACUUUUGACAUCAAAAACAUAAAUCACAUAAUGUACGAAUAUUGCUCAACAGAGGAUUGAGCAUCA
# B3: chr11:102150864:102150865:-_ENSMUSG00000059995_ENSMUST00000137387|mus_mus|FALSE|FALSE (ssRNA)
# RNA: GGGAGUUCUACAGUCCGACGAUCAUUAGUACAGAACCCCCCCACACACAGACACAUGAUAGGAUACAGGGUGGACGACACCUAGCCAGGGUGGGGAGGAUGGGAAUUGAAACCCACACAGCCUGCUGUUAGAGGGAGGGAGUGCAACAGAGGAUUGAGCAUCA
# B4: 98527785_98528331_2553_CDS_ENSG00000196367_ENST00000456197|human|control|control (ssRNA)
# RNA: GGGAGUUCUACAGUCCGACGAUCUUGCAUACCACGCCUGUUCAUAACAACAUGCACACAGGCGCUCCACGAUGUAAGAAAACAGGGGCAGCUGGCAGGCCCUCUCCUUGGAGCCCAGGAUGAUACUUGCAACAUCAAAUAUCACAACAGAGGAUUGAGCAUCA
# B5: chr1:163112212:163112213:-_ENSG00000143248_ENST00000313961|hu_hu|hu_hu_hu_mus_False|38_78 (ssRNA)
# RNA: GGGAGUUCUACAGUCCGACGAUCUUUUAUUAUCAGUAAGAGUGAGUUACAUACUAGAUAAAGUAUUGGAUACAAUAAUCAGGAAACAAACACUAUUUUUCUUGAAUUUAAAACUUUAUGAGCGAAGUGCUGGCACAGGACUUACAACAGAGGAUUGAGCAUCA
# B6: chr1:115276673:115276674:-_ENSG00000009307_ENST00000339438|perfect_dup|FALSE|FALSE (ssRNA)
# RNA: GGGAGUUCUACAGUCCGACGAUCUGUGAAUUCCACGUCAUCUCCAGGCUGUAGGGUUUCUAGGUCACCUUUAAAUUCACUAUAGUGAAAGAAUAUCUCUUUUACAACAUCACCUCUUUCGAUAAAGCCAAACGCCUCCUUCAUCAACAGAGGAUUGAGCAUCA
# B7: chr5:23013406:23013407:-_ENSMUSG00000062604_ENSMUST00000088392|mus_hu|FALSE|FALSE (ssRNA)
# RNA: GGGAGUUCUACAGUCCGACGAUCGUCCAAUGUACUGGGAACAUUUGCUAGCUCAGAAUGCAAUAUUGGUAGAAUUUGCUAAGAAUUCAACCAAGGAUGCCGAAGGCAUUCGCCAGCUGAGGCUCGUUUUUCUGGAACCAUUUCCAACAGAGGAUUGAGCAUCA
# B8: chr2:102141417:102141418:-_ENSMUSG00000027189_ENSMUST00000102573|mus_mus|FALSE|FALSE (ssRNA)
# RNA: GGGAGUUCUACAGUCCGACGAUCUGGGUGUGUACAAAUCUCAUUCUCAUUUACACACACACACACACACACACACACACACACACACACACACACACACACACACACUCCAGGAAGGGAGUCCAAAAUUAGUGAUUUGUAUUGCAACAGAGGAUUGAGCAUCA
# B9: chr6:41757443:41757444:+_ENSG00000214736_ENST00000398881|hu_mus|hu_hu_hu_mus_False|8_88 (ssRNA)
# RNA: GGGAGUUCUACAGUCCGACGAUCGAACCGUGCAGAGGCAACAUCUCGGAAUUCUGCGGGGGAUGGGGGGGCAGUGGGGGGGGGUUCAGGCAAGGAGAGGGAGUCAACUUCAGCUGCCACUCAGGUAGCUGCCAUCAGUCACAGCAACAGAGGAUUGAGCAUCA
# B10: 60591913_60592033_947_CDS_ENSMUSG00000049323_ENSMUST00000056907|mouse|control|control (ssRNA)
# RNA: GGGAGUUCUACAGUCCGACGAUCCUGCUGCAUGAUUUUAUGCUGGUCUGCGGAGAUAUAAGCCAUACAAAAGGGCCUCACAAAGCCCCUGGCCUCCAGGUCGUACAAGGUGAGGUGGUGCACAUAUGCAAAGGCCCCUUCCUUCAACAGAGGAUUGAGCAUCA
# B11: 27324431_27324551_3741_3pUTR_ENSMUSG00000024924_ENSMUST00000167487|mouse|control|control (ssRNA)
# RNA: GGGAGUUCUACAGUCCGACGAUCGGUGAAGUGGUGCAGCCAUGUAAUUCUAGAAGUUGAGAGGCUGAGGCAGGAGCAUUGCAAGCUUGAGGCCAGCAAGGGAAGAAAGGAAGGAAGGAAAGAAGGAAGGAAGUGAUAGAUUUGCAACAGAGGAUUGAGCAUCA
# B12: chr13:108984363:108984364:+_ENSMUSG00000021694_ENSMUST00000054835|mus_mus|FALSE|FALSE (ssRNA)
# RNA: GGGAGUUCUACAGUCCGACGAUCCUGUCUCAAAACCAACAAUAACGGGAAGAACAACCCUGCUCGUGCUGAAGUGCACACAACACUGUCGUGGAAGUCUGAUGGACAAGGAGCCAGGGCUGACAGUCACCCAUCCUCGUCACUCAACAGAGGAUUGAGCAUCA
# B13: chr14:31821845:31821846:+_ENSMUSG00000021916_ENSMUST00000168584|mus_mus|FALSE|FALSE (ssRNA)
# RNA: GGGAGUUCUACAGUCCGACGAUCGGGAAUCUCCUCUUGCCUCUCACUCACUGGAUGCUGAUGAGCACUGGCGACAAAGUCUAUGGGCUGAAGCCCCACAAUUCCCGAAUCUGAAAUGUCAUUCUUUAACAAACUGCUCAAGCUCAACAGAGGAUUGAGCAUCA
# B14: 234749955_234750075_1476_CDS_ENSG00000123485_ENST00000411486|human|control|control (ssRNA)
# RNA: GGGAGUUCUACAGUCCGACGAUCGCUGGAAGGUAAACUCAGCCUGCGGGUUUCUAAGCCCUGAAGGCCACCAGGACUCGCAGGACCCCCUCUGUACAUGUUCAUGGCCCAGGAGUCCGGGAGGCACAUCCGGCGAGGCUGGUUCAACAGAGGAUUGAGCAUCA
# B15: chr3:149686237:149686238:-_ENSG00000070087_ENST00000452853|perfect_dup|FALSE|FALSE (ssRNA)
# RNA: GGGAGUUCUACAGUCCGACGAUCCUCCCCACCUUGACUCUUUGUCCGGAUGUCCAUUGUGCAGUCACCAUCGACGUAUAGACUAUCUCUGAUCACUGAGCAUUUCUUCGCGCCAAGAGUCAAACCGUUGGUAAAGAAACCUUCCAACAGAGGAUUGAGCAUCA
# B16: chr7:135612270:135612271:-_ENSG00000105887_ENST00000393085|hu_mus|hu_hu_hu_mus_False|28_98 (ssRNA)
# RNA: GGGAGUUCUACAGUCCGACGAUCGUUUUUUUCUGAGUAAGUAUUACGUACUUCAGUGGAAAACAAAACUUAACCUUUUAUUAAUGCGUGUUGUACCAAAAGCAGACCAUGGUUUUACAUUUAUUCAAAAAUAUUAACAUUAAGCAACAGAGGAUUGAGCAUCA
# B17: chr4:95690885:95690886:+_ENSMUSG00000028572_ENSMUST00000156910|mus_mus|mus_mus_mus_hu_False|38_98 (ssRNA)
# RNA: GGGAGUUCUACAGUCCGACGAUCUUUAGAAAAUGUUAAUGUUAAAUCUAAAAUAUUUUCAAAGGCUUAUUUUAUUUUACCAGAAGUCACAGGCAAGCAGACACCAUAAGAAUAUAUGAAAAUGAAACUCAACAAUAUAACUGUCAACAGAGGAUUGAGCAUCA
# B18: chr3:135071361:135071362:-_ENSMUSG00000028165_ENSMUST00000029815|mus_hu|motif|central (ssRNA)
# RNA: GGGAGUUCUACAGUCCGACGAUCUCUCUGUGAAAACACAAGUAAUUCUUGAUGGCAAUAUUUUUCUUAAUUCACCGGACCAAAUGCAGUUUGGAAGGCCAAAACGAGAAAAAAACACUUCAGAUUAUCAAAACCAAAAGAGAUCAACAGAGGAUUGAGCAUCA
# B19: 43513620_43515349_3275_CDS_ENSG00000052841_ENST00000039989|human|control|control (ssRNA)
# RNA: GGGAGUUCUACAGUCCGACGAUCCCACACCAGUGCUUUUUCAAAUUCUUCCAUUGCCACGUAGACAUUGCCCAGAGUGAAGUGGUUCACAGCAAAGUGUGGUGCGAUCUCUACUGCCAUGGUGGCUACUAUGACGGCGUCAUUCAACAGAGGAUUGAGCAUCA
# B20: chr4:109959894:109959895:-_ENSMUSG00000028546_ENSMUST00000106598|mus_hu|motif|central (ssRNA)
# RNA: GGGAGUUCUACAGUCCGACGAUCCUUCGACUCUUCUGUUAAAAUUUGCAAAGAUUUCAGAAUAUAUAUUUAAAAUGACGGCGGUUGUUAUAUAUAAUUAAAGAUCCACAAAACACAGUGUGGAUGAUUGUAAAGCAAAUCAAUCAACAGAGGAUUGAGCAUCA
# B21: chr7:35913284:35913285:+_ENSG00000122545_ENST00000399035|perfect_dup|FALSE|FALSE (ssRNA)
# RNA: GGGAGUUCUACAGUCCGACGAUCAUCAGGCAUCUGACGUCUGUUCACUCGUGAUUCUGCAUUUAGGUAGUCCUCAAAUUUACUAUCAAUGUAGUCGAUAACAGGCUGCCAGCAAUUACUAUUAUCCACUGCAUCUCCAAAUCCCAACAGAGGAUUGAGCAUCA
# B22: chr1:6324473:6324474:-_ENSG00000097021_ENST00000608083|hu_mus|FALSE|FALSE (ssRNA)
# RNA: GGGAGUUCUACAGUCCGACGAUCGCCAGUCGGUGUGCUCUGGUGUCCAUGGUGGCCUUUGGGACAACACUGGGGACAUAAAUAAAGCUUUGGUGCACAGGUUUUGGGGAUGGGCCAUAGGGAACACUGCCACUCAACACUUCACAACAGAGGAUUGAGCAUCA
# Biological target: T1, UNK ZnF1-3 (human, UniProt Q9C0B0 31-174)
# T1 sequence: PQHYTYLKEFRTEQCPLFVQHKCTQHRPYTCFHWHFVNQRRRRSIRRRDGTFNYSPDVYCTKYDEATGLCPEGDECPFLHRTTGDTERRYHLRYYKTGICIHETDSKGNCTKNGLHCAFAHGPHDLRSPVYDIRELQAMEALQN
# Assay: nsRBNS (natural sequence RNA bind-n-seq); RBNS binding buffer (assumed for nsRBNS): 25 mM Tris pH 7.5, 150 mM KCl, 3 mM MgCl2, 0.01% Triton X-100, 500 ug/ml BSA, 20 U/ml SUPERase-In, 4 C; UNK is unkempt and MSI1 is Musashi-1; names of the RNAs are library labels; protein concentration not given here; high values mean tight binding
row,Binder,binding signal [enrichment R]
1,B1,1.73
2,B2,1.62
3,B3,1.39
4,B4,0.978
5,B5,1.09
6,B6,1.29
7,B7,1.03
8,B8,1.37
9,B9,2.67
10,B10,0.747
11,B11,2.89
12,B12,1.06
13,B13,1.07
14,B14,0.551
15,B15,1.08
16,B16,1.08
17,B17,2.74
18,B18,1.36
19,B19,0.953
20,B20,2.04
21,B21,0.823
22,B22,1.87

# Reference: publication PMC12136788
